# Data published in the supplement of paper PMC6531468.
# Some of the results follow. Values come from read counts of a selection and are noisy. Each score is taken over the longer molecules that contain the sequence shown.
# Assays:
# Assay in all cases: 6-mer SELEX enrichment z-score vs GST control; IMP3 is the RNA-binding protein IGF2BP3; higher = more enriched by binding
# IMP3 KH1-4 = conditions: construct: KH1-4 (164-579); SELEX round: R4
# Procedure: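 SELEX-seq with GST-tagged IMP3 KH1-4 (Pro164-Lys579) and an N40 RNA pool, round 4. 6-mer z-score of sequence-tag enrichment normalised to the corresponding GST SELEX round; RNA k-mers written as DNA (T for U).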
# IMP3 RRM1-2 = conditions: construct: RRM1-2 (1-163); SELEX round: R2
# Procedure: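 SELEX-seq with GST-tagged IMP3 RRM1-2 (Met1-Asn163) and an N40 RNA pool, round 2. 6-mer enrichment z-score normalised to GST SELEX. RNA written as DNA (T = U).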
# IMP3 full-length = IMP3 full-length (UniProt O00425); conditions: construct: FL IMP3 (1-579); SELEX round: R4
# Procedure: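 SELEX-seq with GST-tagged full-length IMP3 and an N40 RNA pool, round 4. Each 6-mer is scored as an enrichment z-score of sequence tags containing it, normalised to the matching GST SELEX round. RNA written as DNA (T = U).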
# IMP3 KH1-2 = conditions: construct: KH1-2 (164-376); SELEX round: R4
# Procedure: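 SELEX-seq with GST-tagged IMP3 KH1-2 (Pro164-Phe376) and an N40 RNA pool, round 4 (stringent 300/600 mM KCl washes). 6-mer z-score of sequence-tag enrichment normalised to the corresponding GST SELEX round; RNA k-mers written as DNA (T for U).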
# IMP3 KH3-4 = conditions: construct: KH3-4 (377-579); SELEX round: R4
# Procedure: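 SELEX-seq with GST-tagged IMP3 KH3-4 (Pro377-Lys579) and an N40 RNA pool, round 4. 6-mer z-score of sequence-tag enrichment normalised to the corresponding GST SELEX round; RNA k-mers written as DNA (T for U).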
# Sequence of IMP3 KH1-4 (chain, as listed by the source): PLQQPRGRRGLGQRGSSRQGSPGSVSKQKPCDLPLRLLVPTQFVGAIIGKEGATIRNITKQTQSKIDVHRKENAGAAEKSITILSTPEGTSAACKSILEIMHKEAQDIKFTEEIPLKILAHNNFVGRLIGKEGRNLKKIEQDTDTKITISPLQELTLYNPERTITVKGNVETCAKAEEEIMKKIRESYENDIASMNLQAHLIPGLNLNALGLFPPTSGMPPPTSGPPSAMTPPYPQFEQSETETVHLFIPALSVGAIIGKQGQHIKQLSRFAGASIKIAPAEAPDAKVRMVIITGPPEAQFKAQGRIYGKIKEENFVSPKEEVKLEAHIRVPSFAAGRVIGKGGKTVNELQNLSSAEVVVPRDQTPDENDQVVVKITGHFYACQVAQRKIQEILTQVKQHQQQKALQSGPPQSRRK
# Sequence of IMP3 RRM1-2 (chain, as listed by the source): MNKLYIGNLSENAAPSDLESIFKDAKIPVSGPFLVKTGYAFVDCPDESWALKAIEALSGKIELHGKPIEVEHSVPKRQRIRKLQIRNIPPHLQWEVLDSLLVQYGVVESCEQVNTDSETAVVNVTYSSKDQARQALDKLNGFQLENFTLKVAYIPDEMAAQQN
# Sequence of UniProt O00425 (O00425 whole entry): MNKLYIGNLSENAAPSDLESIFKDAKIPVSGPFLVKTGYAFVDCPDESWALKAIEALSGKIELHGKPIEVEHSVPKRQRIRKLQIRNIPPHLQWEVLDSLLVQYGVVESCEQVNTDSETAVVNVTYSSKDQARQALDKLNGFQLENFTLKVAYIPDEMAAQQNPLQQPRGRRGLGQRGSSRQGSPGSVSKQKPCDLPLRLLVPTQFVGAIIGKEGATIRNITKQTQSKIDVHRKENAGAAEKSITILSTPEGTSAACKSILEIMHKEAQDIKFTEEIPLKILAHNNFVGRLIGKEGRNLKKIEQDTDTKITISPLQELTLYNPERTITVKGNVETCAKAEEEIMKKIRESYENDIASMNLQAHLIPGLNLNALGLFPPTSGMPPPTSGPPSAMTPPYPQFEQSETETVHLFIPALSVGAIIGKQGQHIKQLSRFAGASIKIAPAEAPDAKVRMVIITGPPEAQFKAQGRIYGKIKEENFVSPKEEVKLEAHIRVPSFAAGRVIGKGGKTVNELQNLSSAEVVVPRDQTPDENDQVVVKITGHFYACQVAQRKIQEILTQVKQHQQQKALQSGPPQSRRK
# Sequence of IMP3 KH3-4 (chain, as listed by the source): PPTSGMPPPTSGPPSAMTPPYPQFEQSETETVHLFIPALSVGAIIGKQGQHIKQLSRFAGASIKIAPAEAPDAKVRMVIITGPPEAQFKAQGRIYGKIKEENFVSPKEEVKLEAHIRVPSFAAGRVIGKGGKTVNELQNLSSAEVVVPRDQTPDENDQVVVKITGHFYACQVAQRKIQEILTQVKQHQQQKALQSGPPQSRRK
# Sequence of IMP3 KH1-2 (chain, as listed by the source): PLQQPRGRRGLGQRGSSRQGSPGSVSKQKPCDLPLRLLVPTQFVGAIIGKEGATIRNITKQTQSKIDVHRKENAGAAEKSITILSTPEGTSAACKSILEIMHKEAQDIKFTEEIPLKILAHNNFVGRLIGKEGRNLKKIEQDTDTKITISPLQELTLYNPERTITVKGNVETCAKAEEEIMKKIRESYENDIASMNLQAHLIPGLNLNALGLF
Sequence,6-mer SELEX enrichment z-score (IMP3 KH1-4),6-mer SELEX enrichment z-score (IMP3 RRM1-2),6-mer SELEX enrichment z-score (IMP3 full-length),6-mer SELEX enrichment z-score (IMP3 KH1-2),6-mer SELEX enrichment z-score (IMP3 KH3-4)
CCCGAG,-2.96,-1.14,-1.7,-2.66,-2.79
AATTCG,-0.073,-0.293,-0.291,-0.179,0.009
TACATG,1.47,0.561,0.849,1.23,1.45
TGGCAT,0.689,0.675,1.33,0.482,0.592
AGTAAC,-0.332,-0.449,-0.302,-0.293,-0.199
CTGTCC,0.402,-0.13,-0.1,0.231,-0.372
TTAACT,0.819,-0.034,-0.229,0.855,1.24
ACCTCA,-0.943,0.307,-0.552,-0.85,-1.27
TTGACC,-0.806,-0.61,-1.04,-0.897,-1.04
AAGGCT,-0.086,0.07,0.127,-0.02,0.323
GACTGC,-0.019,-0.433,-0.33,-0.076,-0.434
AGATCA,0.938,1.18,0.966,0.735,0.925
CCAGGC,0.175,0.302,0.725,0.028,-0.296
TAATGG,0.664,-0.09,0.039,0.443,0.997
TCGCTG,-0.05,0.14,0.034,0.019,-0.106
GAGGCA,1.12,0.033,1.52,0.772,1.04
CAGAGC,-2.52,0.331,-0.035,-2.36,-2.39
CACTAA,1.45,0.718,0.52,1.45,1.24
CGCCTA,-0.519,-0.317,-0.482,-0.431,-0.589
GCCCTT,-0.24,-0.063,-0.237,-0.245,-0.4
TGGAAG,0.479,-0.332,-0.151,0.326,0.424
AGTTAG,0.325,0.175,0.026,0.195,0.289
CATCCT,0.467,0.41,0.443,0.321,-0.199
CGATTA,0.387,-0.543,-0.391,0.313,0.591

Sequence,6-mer SELEX enrichment z-score (IMP3 KH1-4),6-mer SELEX enrichment z-score (IMP3 RRM1-2),6-mer SELEX enrichment z-score (IMP3 full-length),6-mer SELEX enrichment z-score (IMP3 KH1-2),6-mer SELEX enrichment z-score (IMP3 KH3-4)
ACTATG,0.881,-0.105,-0.123,0.628,0.951
CAGTCC,0.976,0.3,0.779,0.631,-0.086
GCAGCC,0.302,0.227,1,0.329,-0.328
TGGGCC,-0.694,0.11,0.078,-0.477,-0.529
TCACAA,0.731,2.31,1.37,1.04,0.235
TGTCGA,-0.805,0.062,-0.281,-0.715,-0.542
TTGCTC,-0.024,0.334,0.027,0.085,-0.003
TCCTGA,-0.569,-0.388,-0.903,-0.625,-0.744
GTGGGC,0.034,0.217,0.421,0.109,0.12
CCTATA,0.439,-0.359,-0.356,0.324,0.245
GTACAC,-0.371,0.194,0.377,-0.506,-0.767
CGTATG,-0.723,-0.098,-0.547,-0.725,-0.61
GCGGCG,0.556,0.299,1.28,0.487,0.706
ATAAAG,0.8,-1.02,-0.242,0.645,1.61
TTCAAT,1.02,1.14,1.03,1.18,1.11
AAGGCA,1.22,0.419,1.78,0.587,1.38
TGAATT,1.21,-0.45,-0.094,0.828,1.63
ACTCCT,-0.122,-0.101,-0.564,-0.113,-0.453
ATTCAC,1.66,1.9,1.82,1.82,1.17
GTGGGG,1.11,0.292,0.653,1.43,1.21
CTAGTA,-0.127,0.124,-0.235,-0.151,0.027
AATTGA,0.29,-1.14,-0.978,-0.061,1.16
AGTCAG,0.614,0.221,0.664,0.353,0.357
TTTTGA,-0.055,-0.01,-0.401,-0.089,0.373

Sequence,6-mer SELEX enrichment z-score (IMP3 KH1-4),6-mer SELEX enrichment z-score (IMP3 RRM1-2),6-mer SELEX enrichment z-score (IMP3 full-length),6-mer SELEX enrichment z-score (IMP3 KH1-2),6-mer SELEX enrichment z-score (IMP3 KH3-4)
CTGGAA,-0.122,-0.654,-0.516,-0.218,-0.264
CATGCG,-0.382,0.528,0.545,-0.457,-0.427
TGCAGC,0.593,0.199,0.69,0.507,0.185
GTGATT,0.348,-0.05,-0.147,0.139,0.485
GAAGCG,-1.69,-0.78,-0.974,-1.53,-1.23
ATGTAT,0.845,-0.003,-0.005,0.577,1.07
CACTAG,0.285,0.499,0.376,0.066,0.066
GAGGTG,0.208,-0.086,0.212,0.318,0.389
TTATCA,1.26,0.996,0.923,1.36,1.34
CTGTGT,0.029,0.163,-0.144,-0.009,-0.029
TGCGTT,-0.821,0.391,-0.359,-0.648,-0.493
GGAAGT,0.633,-0.258,0.085,0.516,0.554
GACCAG,-0.442,-0.726,-0.508,-0.476,-0.741
TGGCCC,-0.333,-0.268,0.008,-0.204,-0.653
TATACT,0.849,0.14,0,0.889,1.1
CAATAG,0.631,0.221,0.757,0.834,0.726
ACTCAG,-0.954,0.617,-0.077,-0.816,-0.901
CGAGCA,-2.1,0.447,0.433,-1.86,-1.77
CTCGCT,-0.273,0.238,0.037,-0.096,-0.181
AGCACA,0.903,2.04,2.14,0.856,0.4
TAATAA,1.67,-0.773,-0.167,1.64,2.93
CACGAT,0.522,0.017,0.334,0.391,0.343
GTGCTA,-0.138,0.079,-0.157,-0.124,0.009
GTTCAG,0.137,0.426,0.494,0.166,0.226

Sequence,6-mer SELEX enrichment z-score (IMP3 KH1-4),6-mer SELEX enrichment z-score (IMP3 RRM1-2),6-mer SELEX enrichment z-score (IMP3 full-length),6-mer SELEX enrichment z-score (IMP3 KH1-2),6-mer SELEX enrichment z-score (IMP3 KH3-4)
GGCTAC,0.031,0.473,0.55,0.1,0.238
GGTACG,-0.3,0.105,0.263,-0.269,-0.291
CTGTGA,0.033,-0.531,-0.476,-0.135,-0.092
GACGTG,-0.97,-0.698,-0.692,-0.948,-0.907
TTCCTT,1.07,0.365,0.166,1.05,0.793
GCAACG,-0.261,-0.346,0.425,-0.472,-0.575
GTAGCG,-1.14,0.06,-0.504,-1.06,-0.833
ACTCGA,-2.17,-0.22,-1.17,-1.97,-1.91
AATTTT,1.09,0.003,0.11,1.24,2.01
GTACCC,-0.876,0.256,0.033,-0.834,-0.95
TGATAA,1.33,-0.911,-0.339,0.951,2.04
ATCGAA,-1.25,-0.925,-1.01,-1.39,-1.23
AAGAAC,-0.132,-1.52,-1.26,-0.136,0.479
GATCCA,-0.604,-0.282,-0.538,-0.587,-0.787
ACTCTC,-0.198,0.291,-0.243,-0.143,-0.473
ATTACG,0.795,0.033,0.075,0.606,1.01
GCGTGG,-2.04,0.15,-1.05,-1.74,-1.62
TCTCAA,-0.374,0.404,0.139,-0.22,-0.421
AGACAA,0.088,-0.117,-0.33,0.181,0.363
TCGACT,-0.666,0.016,-0.362,-0.569,-0.595
ATTCCG,0.711,-0.145,0.4,0.98,0.259
GTATTG,0.046,0.142,-0.08,0.063,0.224
AGCAGG,0.741,0.647,1.12,0.638,0.51
TAGGAG,0.562,0.051,0.161,0.362,0.619

Sequence,6-mer SELEX enrichment z-score (IMP3 KH1-4),6-mer SELEX enrichment z-score (IMP3 RRM1-2),6-mer SELEX enrichment z-score (IMP3 full-length),6-mer SELEX enrichment z-score (IMP3 KH1-2),6-mer SELEX enrichment z-score (IMP3 KH3-4)
TGGTTG,-0.059,0.446,0.006,0.03,0.106
TATGTA,0.713,-0.02,-0.031,0.518,0.974
CGGACC,-0.851,-0.801,-0.386,-0.887,-1.26
TCTTCG,-0.192,0.402,0.024,-0.142,-0.125
TTCTAT,0.885,0.508,0.293,0.89,1.07
TGCAAA,-0.153,-0.608,-0.454,-0.056,-0.042
GTTCCA,0.102,0.246,-0.011,0.048,-0.154
ATCGGA,0.095,-0.239,0.053,-0.243,0.109
GCTCGC,-0.15,0.282,0.44,0.014,-0.187
ACTCCA,-0.614,0.011,-0.659,-0.459,-1.08
GAGCCG,-1.94,-0.753,-0.752,-1.66,-1.77
ATGCTG,0.621,-0.089,0.092,0.485,0.452
TACCTT,-0.712,0.087,-0.705,-0.633,-0.705
CCACCT,-0.853,-0.413,-0.845,-0.748,-1.31
CAAGTC,-0.016,0.38,0.435,-0.249,-0.345
ACCGCC,-0.187,-0.962,-0.301,0.21,-1.03
TATCAC,1.15,1.22,0.982,1.26,0.87
TTGGCA,0.302,0.433,0.543,0.176,0.193
AAGGTC,-0.022,-0.19,0.122,-0.123,0.084
GCAGAC,-0.137,0.141,0.649,-0.029,-0.34
GGACGT,-0.695,-0.259,-0.281,-0.592,-0.517
CGACAA,-1.1,-0.63,-0.226,-0.974,-1.17
CTTTCA,1.08,0.891,0.902,1.15,0.729
TCTCCC,-0.137,0.001,-0.415,-0.133,-0.681
